39 sequences from the supplement of paper PMC10338343 can be followed below.

± gives the standard deviation. In all, about 5,500 sequences were measured (“pre-steady-state target cleavage rate”: median about 0.1, highest 2% from about 0.64 on). The list shows a part of the results, in another mix than the full data.

In the experiment the test system is MIWI (PIWIL1) piRISC loaded with piRNA #2 (30 nt). As to the kind of experiment: pre-steady-state target cleavage rate (min^-1); MIWI and MILI are mouse PIWI proteins and EfPiwi is from a freshwater sponge; tags in brackets are library labels; higher = faster piRNA-guided slicing of the target. To be noted: guide: piRNA #2 5'p-UUAGGUAACCCAGUAGAUCCAGAGGAAUUC; auxiliary factor: 500 nM mouse GTSF1. An outline of the steps: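 The method was Cleave-'n-Seq, in which uncleaved targets from a transcribed, DNA-blocked target RNA library were sequenced after exposure to active affinity-purified piRISC carrying one synthetic guide, with or without GTSF1 partner protein. Reactions contained 0.1 nM library, 1 nM piRISC and, where present, 500 nM GTSF1 in HEPES–potassium acetate buffer at 33 °C for 0–8 or 0–960 min. Reads were normalised to depth and to weakly complementary targets, three trials were pooled, and k3 was capped at 0.0001 min^-1. The pre-steady-state cleavage rate came from a burst-and-steady-state fit.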
CAUUUCCUCUGGAUCUACUGGGAUACCUAA: the “pre-steady-state target cleavage rate” value was 0.345 ± 0.028. The value for CUAUUCCUCUGGAUCUACUGGGAUACCUUA was 0.176 ± 0.037; that for GAAUACCUCUGGAUCUACUGGGUUACCUUA was 0.223 ± 0.048. The value for CUUAAGGUCAGGAUCUACUCGGUUACCUAA was 0.00885 ± 0.0061; that for CUUAUCCUCUGGAUCUACUGGGUUUGCUAA was 0.265 ± 0.042. CUUAUCCUGUGGAUCUACUGGGUUACGUAA: the “pre-steady-state target cleavage rate” value amounted to 0.524 ± 0.064. Next, CUUAAGGUCUGCAUCUUCUGGGUUACCUAA: 0.0747 ± 0.017; CAAUUACUCUGGAUCUACUGGGUUACCUAA: 0.207 ± 0.048; CUUAAGGUCUGGAUCUACUGGGUUAACCUAA: 0.199 ± 0.036. For the sequence CUUUUCCUCUGGAUCUACUGGGUUACCUCAA, the “pre-steady-state target cleavage rate” value was 0.44 ± 0.065. The value for GAAUUCCUCUGGAUCUGCUGGGUUACCUAA was 0.213 ± 0.044; that for CUAUACCUCUGGAUCUACUGGGUUUCCUAA was 0.429 ± 0.086. On to CAAUUCCUCUGGAACUACAGGGUUACCUAA, for which the “pre-steady-state target cleavage rate” value is 0.316 ± 0.031.

In the case of GAAUUCCUCUGGAGUCUACUGGGUUACCUAA, the “pre-steady-state target cleavage rate” value came out at 0.311 ± 0.043. Next, GAAUUCCUCUGGAUCUAGUGGGUAACCUAA: 0.0723 ± 0.015; CUUAAGGACACGAUCUACUGGGUUACCUAA: 0.0145 ± 0.0096; CUAUUCCUCUGGAUCUACUGGGUUAUCCUAA: 0.401 ± 0.047. The value for CUUAACCACUGGAUCUACAGGGUUACCUAA was 0.258 ± 0.029. The value for CUUAAGCUCUGGAUCUAGUGGGUUUCCUAA was 0.0274 ± 0.0083; that for CUUAAGGAGUGGAUCUACUAGGUUACCUAA was 0.0522 ± 0.011.

On to CUUAACCUCUGGAUCUACUGGGUAACCUUA, for which the “pre-steady-state target cleavage rate” value is 0.0523 ± 0.011. Take CUUUUCCUCAGGUUCUACUGGGUUACCUAA: the “pre-steady-state target cleavage rate” value stood at 0.494 ± 0.043. Consider CUUUUCCUCAGGAUCUACUGGGUUACCUAA, for which the “pre-steady-state target cleavage rate” value is 0.578 ± 0.054. The value for CUUUUCCUCUGGUUCUACUCGGUUACCUAA was 0.122 ± 0.011. For the sequence CUUAAGGUCAGGAUGUACUGGGUUACCUAA, the “pre-steady-state target cleavage rate” value came to 0.0289 ± 0.021.

For CAAUUCGUCUCGAUCUACUGGGUUACCUAA, the “pre-steady-state target cleavage rate” value was 0.556 ± 0.049. The value for CUUAACCUCUGGAUCUUGAGGGUUACCUAA was 0.00547 ± 0.0038; that for CAAUUCCUCAGGAUCUACUGGGUUACCAAA was 0.534 ± 0.058; that for CUUUUCCUCUGGAUCUACUGGGCUACCUAA was 0.148 ± 0.02. Next, GAAUUCCUCUGGAUCUACAGGGUUACCAAA: 0.201 ± 0.022; GAAUGCCUCUGGAUCUACUGGGUUACCUAA: 0.148 ± 0.034. Next, CUUUUCGUCUGGAUCUACUGCGUUACCUAA: 0.306 ± 0.034; GAAUUCCUCUCGAUCUACUGGGAUACCUAA: 0.522 ± 0.049; CUUAUCCUCUGGAACAACUGGGUUACCUAA: 0.423 ± 0.036. CUUAAGGUCUGGAUCAAGUGGGUUACCUAA: the “pre-steady-state target cleavage rate” value amounted to 0.00395 ± 0.0036. With “CUUAAGGAGUGGAUCUACUGGGUUACCUAA [g2:g21:cont:t1A]”, the “pre-steady-state target cleavage rate” value was 0.185 ± 0.03. Next, CUUAAGAUCUGGAUCUACUGGGUUACCUAA: 0.288 ± 0.043; CUUAACCUCUGGAUCUAAUGGGUUACCUAA: 0.0928 ± 0.014; “CUUAAGGAGACCAUCUACUGGGUUACCUAG [g2:g18:cont:t1G]”: 0.00455 ± 0.004.
